# Test results published in publication PMC5700166.
# Only a part is listed here, and it is no random draw. The list includes weakly bound sequences.
# Columns and labels:
# Experiment in all cases: protein-binding microarray (PBM)
# Conditions in all cases: PBM: ~300 nM protein, 6 mM HEPES pH 7.8, 80 mM KCl, 0.5 mM EDTA, 0.5 mM EGTA, 6% glycerol, 35 ng/ul poly-dIdC, 1% milk, 1 h, room temperature; Ap Aiptasia and Nv Nematostella (sea anemones) / Co Capsaspora / Aq Amphimedon (sponge) / Dm Drosophila / Hu human; RHD is the Rel homology domain; high values mean tight binding; most listed sequences are background and not binding sites; double strand, one strand shown
# GST-Ap-NF-kB RHD = molecular target: T1, GST-Ap-NF-kB RHD (UniProt A0A913YAJ5)
# T1 sequence: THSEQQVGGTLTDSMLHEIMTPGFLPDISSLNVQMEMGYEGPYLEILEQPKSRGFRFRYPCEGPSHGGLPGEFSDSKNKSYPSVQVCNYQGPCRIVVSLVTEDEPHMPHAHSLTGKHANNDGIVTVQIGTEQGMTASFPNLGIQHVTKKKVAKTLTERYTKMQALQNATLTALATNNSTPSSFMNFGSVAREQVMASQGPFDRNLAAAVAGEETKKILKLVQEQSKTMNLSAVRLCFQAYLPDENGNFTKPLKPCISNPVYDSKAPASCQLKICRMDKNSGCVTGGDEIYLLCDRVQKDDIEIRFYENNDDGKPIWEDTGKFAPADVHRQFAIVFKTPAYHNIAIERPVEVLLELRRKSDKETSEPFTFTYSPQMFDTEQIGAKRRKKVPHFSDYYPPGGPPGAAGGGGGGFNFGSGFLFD
# [1] = molecular target: T2, GST-Nv-NF-kB (Cys allele) (UniProt E5G601)
# T2 sequence: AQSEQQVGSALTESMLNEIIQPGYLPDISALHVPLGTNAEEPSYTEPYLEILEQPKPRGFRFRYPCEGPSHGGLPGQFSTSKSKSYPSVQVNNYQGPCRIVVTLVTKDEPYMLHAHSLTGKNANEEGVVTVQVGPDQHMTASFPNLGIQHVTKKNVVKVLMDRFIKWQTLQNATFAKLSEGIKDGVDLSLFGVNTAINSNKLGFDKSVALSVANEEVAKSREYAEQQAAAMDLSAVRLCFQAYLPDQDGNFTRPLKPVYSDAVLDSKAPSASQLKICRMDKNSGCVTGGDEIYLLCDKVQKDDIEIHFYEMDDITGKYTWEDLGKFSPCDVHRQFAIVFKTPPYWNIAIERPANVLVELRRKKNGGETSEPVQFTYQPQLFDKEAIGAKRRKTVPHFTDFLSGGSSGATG
# GST-Co-NF-kB = molecular target: T3, GST-Co-NF-kB (UniProt F1ARL5)
# T3 sequence: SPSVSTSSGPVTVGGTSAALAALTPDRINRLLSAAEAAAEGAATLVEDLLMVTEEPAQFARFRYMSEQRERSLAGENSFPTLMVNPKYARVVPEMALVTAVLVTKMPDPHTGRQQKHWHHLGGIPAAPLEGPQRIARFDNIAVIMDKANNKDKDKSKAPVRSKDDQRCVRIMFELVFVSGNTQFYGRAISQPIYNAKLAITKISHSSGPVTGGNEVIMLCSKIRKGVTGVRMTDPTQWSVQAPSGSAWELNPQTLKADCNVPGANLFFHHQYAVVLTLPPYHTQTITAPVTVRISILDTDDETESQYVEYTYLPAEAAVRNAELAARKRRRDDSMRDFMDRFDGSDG
# GST-Dm-Relish = molecular target: T4, GST-Dm-Relish (UniProt Q94527)
# T4 sequence: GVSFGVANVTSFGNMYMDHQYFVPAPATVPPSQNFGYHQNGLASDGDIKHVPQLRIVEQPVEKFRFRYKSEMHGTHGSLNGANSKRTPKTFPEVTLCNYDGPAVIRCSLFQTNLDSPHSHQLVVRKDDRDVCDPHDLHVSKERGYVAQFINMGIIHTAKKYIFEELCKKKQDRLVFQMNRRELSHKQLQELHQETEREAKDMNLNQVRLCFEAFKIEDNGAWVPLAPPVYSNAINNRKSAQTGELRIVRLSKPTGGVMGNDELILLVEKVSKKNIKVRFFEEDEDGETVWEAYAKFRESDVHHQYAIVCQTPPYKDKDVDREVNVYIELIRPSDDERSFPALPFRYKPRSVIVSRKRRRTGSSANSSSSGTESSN
# GST-Aq-NF-kB = molecular target: T5, GST-Aq-NF-kB (UniProt A9Y5G7)
# T5 sequence: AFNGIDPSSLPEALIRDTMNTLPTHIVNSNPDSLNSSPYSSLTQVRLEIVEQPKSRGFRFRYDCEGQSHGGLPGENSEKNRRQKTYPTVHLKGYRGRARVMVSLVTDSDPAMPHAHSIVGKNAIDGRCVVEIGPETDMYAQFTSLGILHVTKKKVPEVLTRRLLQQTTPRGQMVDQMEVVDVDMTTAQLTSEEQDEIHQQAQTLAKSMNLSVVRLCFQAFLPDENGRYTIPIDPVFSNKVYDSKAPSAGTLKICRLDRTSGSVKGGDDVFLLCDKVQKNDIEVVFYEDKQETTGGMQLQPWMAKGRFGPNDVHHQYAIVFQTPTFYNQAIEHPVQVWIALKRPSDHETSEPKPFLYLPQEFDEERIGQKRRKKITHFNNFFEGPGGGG
Sequence,binding signal (GST-Ap-NF-kB RHD),binding signal [1],binding signal (GST-Co-NF-kB),binding signal (GST-Dm-Relish),binding signal (GST-Aq-NF-kB)
CCGATTAACATCATGAAAGAGGCTGATGTTAATCGGGTCTTGATTCGCTTGACGCTGCTG,-0.324 z-score,-0.198 z-score,0.0279 z-score,-0.589 z-score,-0.324 z-score
CCGATTAACATCAAGGCAGGCATTGATGTTAATCGGGTCTTGATTCGCTTGACGCTGCTG,-0.165 z-score,-0.159 z-score,-0.387 z-score,-0.631 z-score,-0.46 z-score
CCGATTAACATCACAACCTACCATGATGTTAATCGGGTCTTGATTCGCTTGACGCTGCTG,0.409 z-score,-0.623 z-score,0.908 z-score,0.104 z-score,-0.47 z-score
CCGATTAACATCAGCGTGCGACGTGATGTTAATCGGGTCTTGATTCGCTTGACGCTGCTG,-0.422 z-score,-0.479 z-score,-0.21 z-score,-0.096 z-score,-0.387 z-score
CCGATTAACATCAGCTGATAGGTTGATGTTAATCGGGTCTTGATTCGCTTGACGCTGCTG,-0.363 z-score,-0.933 z-score,-1.24 z-score,-0.579 z-score,-0.453 z-score
CCGATTAACATCAGAATCTCCTCTGATGTTAATCGGGTCTTGATTCGCTTGACGCTGCTG,-0.216 z-score,-0.213 z-score,-0.633 z-score,-0.802 z-score,-0.269 z-score
CCGATTAACATCAATTGCTTTCTTGATGTTAATCGGGTCTTGATTCGCTTGACGCTGCTG,-0.786 z-score,-0.206 z-score,-0.305 z-score,-0.518 z-score,-0.561 z-score
CCGATTAACATCAGACATCGACATGATGTTAATCGGGTCTTGATTCGCTTGACGCTGCTG,0.218 z-score,-0.627 z-score,-0.683 z-score,-0.922 z-score,-0.376 z-score
CCGATTAACATCAACACGACAAGTGATGTTAATCGGGTCTTGATTCGCTTGACGCTGCTG,-0.603 z-score,-0.00521 z-score,0.39 z-score,0.0405 z-score,-0.369 z-score
